Source: publication PMC9326220
No constants are given. Whether binding was seen depends on the method and setting. Binding seen in cells or lysates may run through a third protein. Some entries that bind do so weakly or less than the wild type. Where a sequence is shown, tags or fusion partners need not be part of it.

The chains behind the UniProt entries cited, without tags or fusion partners. Residues count along the entry.
UniProt P97772, residues 21-1199: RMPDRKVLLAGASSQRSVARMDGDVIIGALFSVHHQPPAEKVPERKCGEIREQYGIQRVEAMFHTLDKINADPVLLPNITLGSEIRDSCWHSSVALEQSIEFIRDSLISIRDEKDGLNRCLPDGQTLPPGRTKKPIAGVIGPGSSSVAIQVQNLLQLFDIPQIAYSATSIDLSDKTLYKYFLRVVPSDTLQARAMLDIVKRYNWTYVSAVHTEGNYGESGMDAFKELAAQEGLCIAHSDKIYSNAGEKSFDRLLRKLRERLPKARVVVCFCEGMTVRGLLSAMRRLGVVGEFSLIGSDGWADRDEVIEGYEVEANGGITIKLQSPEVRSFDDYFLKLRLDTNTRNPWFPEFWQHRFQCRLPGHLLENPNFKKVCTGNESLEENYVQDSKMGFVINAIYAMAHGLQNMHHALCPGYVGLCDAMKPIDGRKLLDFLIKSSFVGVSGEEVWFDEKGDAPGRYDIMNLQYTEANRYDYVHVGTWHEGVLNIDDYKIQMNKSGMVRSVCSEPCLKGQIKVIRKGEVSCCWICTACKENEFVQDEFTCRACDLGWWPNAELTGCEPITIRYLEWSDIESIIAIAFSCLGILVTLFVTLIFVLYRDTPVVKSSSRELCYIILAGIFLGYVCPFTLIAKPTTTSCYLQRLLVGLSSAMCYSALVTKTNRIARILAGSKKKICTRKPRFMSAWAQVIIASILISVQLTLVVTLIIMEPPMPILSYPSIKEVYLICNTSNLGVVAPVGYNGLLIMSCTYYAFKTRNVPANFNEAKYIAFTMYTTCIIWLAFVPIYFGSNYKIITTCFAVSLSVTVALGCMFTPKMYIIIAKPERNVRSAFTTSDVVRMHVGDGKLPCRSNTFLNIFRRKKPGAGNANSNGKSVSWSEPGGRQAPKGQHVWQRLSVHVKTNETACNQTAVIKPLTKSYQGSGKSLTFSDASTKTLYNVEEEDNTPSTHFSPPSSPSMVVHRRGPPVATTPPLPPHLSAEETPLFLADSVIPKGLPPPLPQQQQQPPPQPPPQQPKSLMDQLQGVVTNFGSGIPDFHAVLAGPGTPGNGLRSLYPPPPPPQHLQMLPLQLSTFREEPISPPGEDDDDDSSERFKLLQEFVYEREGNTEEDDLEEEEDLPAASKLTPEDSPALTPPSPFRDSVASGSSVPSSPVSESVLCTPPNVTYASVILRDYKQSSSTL

How the values were obtained:
Assay in all cases: co-IP; transiently transfected HEK293 cells lysed in NETT buffer (50 mM Tris-HCl, 150 mM NaCl, 0.1 mM EDTA, 1% Triton X-100); supernatant with mouse anti-Myc, anti-EGFP or anti-Flag antibody overnight at 4°C, protein A/G agarose 4 h, 5 washes; immunoblot; normal mouse IgG and tag-only vector as controls
[1] = target: T1, NECAB2-Myc (neuronal calcium-binding protein 2, mouse) (mouse) (UniProt Q91ZP9)
T1 sequence: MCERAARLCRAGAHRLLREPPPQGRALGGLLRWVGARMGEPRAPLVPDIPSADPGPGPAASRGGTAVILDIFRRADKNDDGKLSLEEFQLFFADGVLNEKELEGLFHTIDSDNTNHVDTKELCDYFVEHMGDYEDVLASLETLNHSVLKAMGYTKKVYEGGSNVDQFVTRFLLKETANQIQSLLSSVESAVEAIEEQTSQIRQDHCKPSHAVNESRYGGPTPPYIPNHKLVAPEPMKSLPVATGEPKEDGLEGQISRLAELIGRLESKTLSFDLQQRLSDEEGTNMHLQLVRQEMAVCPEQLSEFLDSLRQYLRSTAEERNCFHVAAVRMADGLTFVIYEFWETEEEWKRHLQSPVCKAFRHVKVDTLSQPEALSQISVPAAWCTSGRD

[2] = target: T2, EGFP-ABM (antibiotic biosynthesis monooxygenase domain of NECAB2) (mouse) (UniProt Q91ZP9)
T2 sequence: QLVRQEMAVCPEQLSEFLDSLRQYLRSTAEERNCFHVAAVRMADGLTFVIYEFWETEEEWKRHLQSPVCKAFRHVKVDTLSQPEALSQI

NECAB2-Flag (mouse) = target: T3, NECAB2-Flag (mouse) (UniProt Q91ZP9)
T3 sequence: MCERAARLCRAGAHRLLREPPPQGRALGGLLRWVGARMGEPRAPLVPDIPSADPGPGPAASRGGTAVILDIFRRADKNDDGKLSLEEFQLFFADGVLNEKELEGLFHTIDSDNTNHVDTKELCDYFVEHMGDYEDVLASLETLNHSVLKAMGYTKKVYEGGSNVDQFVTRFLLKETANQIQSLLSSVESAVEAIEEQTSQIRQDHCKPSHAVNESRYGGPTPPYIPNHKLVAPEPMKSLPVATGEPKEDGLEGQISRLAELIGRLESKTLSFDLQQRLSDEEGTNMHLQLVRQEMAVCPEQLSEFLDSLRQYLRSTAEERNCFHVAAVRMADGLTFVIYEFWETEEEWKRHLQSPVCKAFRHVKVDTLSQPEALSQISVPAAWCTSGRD

[3] = target: T4, Flag-ABM (antibiotic biosynthesis monooxygenase domain of NECAB2) (mouse) (UniProt Q91ZP9)
T4 sequence: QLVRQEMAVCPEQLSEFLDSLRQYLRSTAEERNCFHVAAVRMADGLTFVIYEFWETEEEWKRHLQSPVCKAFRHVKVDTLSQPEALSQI

Molecule: mGluR1-mCherry (metabotropic glutamate receptor 1, mouse Grm1) (from UniProt P97772 21-1199)
- binding [1]: binds
- binding [2]: no binding

B1: EGFP-NECAB2 (protein, UniProt Q91ZP9 1-389)
chain: MCERAARLCRAGAHRLLREPPPQGRALGGLLRWVGARMGEPRAPLVPDIPSADPGPGPAASRGGTAVILDIFRRADKNDDGKLSLEEFQLFFADGVLNEKELEGLFHTIDSDNTNHVDTKELCDYFVEHMGDYEDVLASLETLNHSVLKAMGYTKKVYEGGSNVDQFVTRFLLKETANQIQSLLSSVESAVEAIEEQTSQIRQDHCKPSHAVNESRYGGPTPPYIPNHKLVAPEPMKSLPVATGEPKEDGLEGQISRLAELIGRLESKTLSFDLQQRLSDEEGTNMHLQLVRQEMAVCPEQLSEFLDSLRQYLRSTAEERNCFHVAAVRMADGLTFVIYEFWETEEEWKRHLQSPVCKAFRHVKVDTLSQPEALSQISVPAAWCTSGRD
- binding (NECAB2-Flag (mouse)): binds

B2: EGFP-ABM (antibiotic biosynthesis monooxygenase domain of NECAB2) (domain or fragment, UniProt Q91ZP9 289-377)
chain: QLVRQEMAVCPEQLSEFLDSLRQYLRSTAEERNCFHVAAVRMADGLTFVIYEFWETEEEWKRHLQSPVCKAFRHVKVDTLSQPEALSQI
- binding (NECAB2-Flag (mouse)): binds
- binding [3]: binds
